# Out of some 310,000 compounds screened, about 2,200 (0.71%) showed an effect of 50% or more. The effect is printed as a negative number. The list shows a part of the results.
# Biological target: human ether-à-go-go-related gene (hERG) potassium channel (human, UniProt Q12809)
# Assay: primary screen, population patch clamp on CHO cells stably expressing hERG
# Sequence of human ether-à-go-go-related gene (hERG) potassium channel (Q12809 whole entry, looked up): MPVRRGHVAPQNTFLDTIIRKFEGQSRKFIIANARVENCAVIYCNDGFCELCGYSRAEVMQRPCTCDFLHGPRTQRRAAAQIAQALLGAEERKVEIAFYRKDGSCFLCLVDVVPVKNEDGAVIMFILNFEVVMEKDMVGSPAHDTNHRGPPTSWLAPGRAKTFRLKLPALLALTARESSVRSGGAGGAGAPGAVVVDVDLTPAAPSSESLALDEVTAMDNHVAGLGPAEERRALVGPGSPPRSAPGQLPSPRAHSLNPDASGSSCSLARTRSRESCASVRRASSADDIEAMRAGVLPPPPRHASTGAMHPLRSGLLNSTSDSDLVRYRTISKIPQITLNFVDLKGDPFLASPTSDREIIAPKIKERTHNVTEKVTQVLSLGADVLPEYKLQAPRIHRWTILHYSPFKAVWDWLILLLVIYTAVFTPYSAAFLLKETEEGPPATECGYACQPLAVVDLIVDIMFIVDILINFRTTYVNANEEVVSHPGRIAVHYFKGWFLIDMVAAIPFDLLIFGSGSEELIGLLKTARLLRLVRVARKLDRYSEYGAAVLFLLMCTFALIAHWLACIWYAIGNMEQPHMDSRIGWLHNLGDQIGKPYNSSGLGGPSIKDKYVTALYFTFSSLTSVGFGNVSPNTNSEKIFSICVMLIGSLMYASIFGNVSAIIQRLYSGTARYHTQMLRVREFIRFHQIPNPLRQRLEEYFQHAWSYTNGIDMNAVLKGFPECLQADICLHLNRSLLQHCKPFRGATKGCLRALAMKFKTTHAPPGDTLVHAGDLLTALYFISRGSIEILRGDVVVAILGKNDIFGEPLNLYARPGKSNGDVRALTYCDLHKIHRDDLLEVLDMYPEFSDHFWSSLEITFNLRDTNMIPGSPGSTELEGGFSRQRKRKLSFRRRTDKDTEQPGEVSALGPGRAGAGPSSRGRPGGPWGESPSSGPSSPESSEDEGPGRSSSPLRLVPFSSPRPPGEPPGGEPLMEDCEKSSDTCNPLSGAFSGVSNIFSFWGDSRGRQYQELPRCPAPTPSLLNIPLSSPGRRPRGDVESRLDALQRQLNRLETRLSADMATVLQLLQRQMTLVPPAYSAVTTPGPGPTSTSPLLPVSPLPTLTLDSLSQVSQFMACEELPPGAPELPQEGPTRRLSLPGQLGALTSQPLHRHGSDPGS
row,Compound,"hERG current change (%, negative = inhibition) at 1uM [%]"
1,COc1ccc(COC(=O)C2=C(C)NC(=O)NC2c2ccc(O)c(OC)c2)cc1 (stereo not shown),4.81
2,O=C(CSc1nc2ccccc2[nH]1)NC1CCCc2ccccc21 (stereo not shown),8.95
3,O=C(CCSc1ccccc1)Nc1ccc(OCc2ccccc2)cc1,9.12
4,C#CCOCCOCCOCCNc1nc(N2CCN(C(=O)C([C@@H](C)CC)n3cc(C(N)Cc4ccc(O)cc4)nn3)CC2)nc(N2CCN(C(=O)[C@H](CCC(=O)O)n3cc(C(N)CC(C)C)nn3)CC2)n1.Cl (stereo partly shown),10.1
5,COc1cccc(CN(C)CC(=O)NC(=O)NCc2ccccc2)c1,4.04
6,CCN(CC)c1ccc(N=Nc2nn(C)c(C)c2[N+](=O)[O-])cc1,5.4
7,NC(=O)[C@@H]1[C@@H]2C(=O)N(c3ccc(F)cc3)C(=O)[C@@H]2[C@H]2C=Cc3ccccc3N21,10.1
8,COc1ccccc1-c1noc(-c2cccs2)n1,0.581
9,CCN1CCC(NC(=O)c2cc(OC)c(OC)cc2OC)CC1,3.22
10,Cc1cc(C)cc(NC(=O)COc2coc(CN3CCc4ccccc43)cc2=O)c1,10.2
11,COC(=O)c1ccccc1N1C(=O)C2C(C1=O)[C@H]1C=C[C@@H]2C1 (stereo partly shown),-3.85
12,O=C(CSc1nnc(Cc2ccccc2)o1)N1CCc2ccccc21,4.83
13,COCCNC(=O)CCC1CCN(Cc2ccc(-c3ccccc3)cc2)CC1,-15.5
14,Cc1ccc(N2CC(C(=O)OCC(=O)Nc3cc(C)on3)CC2=O)c(C)c1 (stereo not shown),17.3
15,COc1ccc(CCC(=O)Nc2ccc(OC)c(S(=O)(=O)N3CCCCC3)c2)cc1OC,-1.26
16,c1ccc2[nH]c(-c3ccnc4ccccc34)nc2c1,6.78
17,Clc1ccc(N2N=C(c3cccs3)CC2c2ccco2)cc1 (stereo not shown),0.328
18,CC(C)c1nnc(NC(=O)CCC(=O)NCc2ccc3c(c2)OCO3)s1,12.4
19,COc1ccccc1/C=C/C(=O)Nc1cccc(C(C)=O)c1,4.4
20,Cc1cc(S(=O)(=O)n2cnc3ccccc32)c(C)cc1Cl,6.78
21,CCN1CCC(=NNC(=O)c2ccco2)CC1,1.64
22,COc1cccc(NC(=O)CN(c2ccc3c(c2)OCO3)S(C)(=O)=O)c1,14.1

row,Compound,"hERG current change (%, negative = inhibition) at 1uM [%]"
1,Cc1ccccc1NC(=S)N(CCCN1CCC(C)CC1)Cc1ccco1,-32.6
2,CCCCCC(=O)Nc1ccc(C(=O)N/N=C/c2ccc([N+](=O)[O-])cc2)cc1,13.9
3,C=COC(=O)c1sc2nc(C)cc(C)c2c1N,19.7
4,CC(=O)N1CCc2cc(S(=O)(=O)C(C)CC(=O)Nc3ccc(OC(F)(F)F)cc3)ccc21 (stereo not shown),2.41
5,Cc1ccc(C(=O)N[C@H](C(=O)OCc2cc(=O)oc3cc(C)ccc23)C(C)C)cc1,1.31
6,O=C(NCc1nnc(SCC(=O)N2CCCc3ccccc32)n1-c1ccccc1)c1cccc2ccccc12,17.4
7,COc1ccc(C(=O)CSc2nnc(-c3ccoc3C)n2CC2CCCO2)cc1 (stereo not shown),4.78
8,COc1cc(C)ccc1OCCON1C(=O)CCC1=O,9.55
9,CCOc1ccc(Cc2nc(C)c(CC(=O)N3CCOCC3)c(=O)[nH]2)cc1,15.5
10,CC(=O)Oc1ccc2occ(C(=O)c3ccccc3)c2c1,8.49
11,CC1(C(=O)N2CC3(CC(c4ccccc4)=NO3)C[C@H]2C(=O)NCC(N)=O)CC1 (stereo partly shown),3.64
12,Cc1ccc(S(=O)(=O)NCCC(=O)NC(C)c2ccccc2)cc1 (stereo not shown),13.1
13,Cc1cc(C)c(S(=O)(=O)N2CCN(C(=O)C3CCCO3)CC2)c(C)c1 (stereo not shown),2.22
14,Cc1cc2cc(C(c3nnnn3Cc3ccco3)N3CCc4ccccc43)c(=O)[nH]c2cc1C (stereo not shown),6.4
15,Cc1oc(/N=C/c2ccc(F)cc2)c(C#N)c1C,14.9
16,CC1=Nc2ccccc2N=C(NC(=O)c2ccccc2)C1c1ccccc1 (stereo not shown),3.66
17,COc1ccc(S(=O)(=O)Nc2ccc3c(c2)n(C)c(=O)n3C)cc1,10.2
18,CCCCCOc1ccc(C(=O)NCC(=O)NCC(=O)OCC)cc1,4.57
19,CC1(C)NC(=O)N(CC(O)Cn2c3ccccc3c3ccccc32)C1=O (stereo not shown),7.68
20,CS(=O)(=O)N(CCc1ccccc1)CC(=O)N1CCN(Cc2ccccc2)CC1,-0.666
21,CC(C)OC(=O)CC(=O)CSc1nc2c(cc1C#N)CCCCCC2,14.9
